Here are results for 31 molecules from PMC9911399, “Two distinct binding modes provide the RNA-binding protein RbFox with extraordinary sequence specificity”.

T1: RBFOX1 RRM RbFoxmut (Fox-RRM*) (Homo sapiens, UniProt Q9NWB1 109-208, R118D;E147R;N151S;E152T)
T1 sequence: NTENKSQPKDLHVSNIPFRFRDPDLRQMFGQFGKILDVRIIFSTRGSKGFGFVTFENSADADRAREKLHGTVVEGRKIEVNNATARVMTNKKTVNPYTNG

B1: GCUCUCU (DNA:RNA)
RNA: GGGAGACCGGAAUUCAGAUUGUCCGCUCUCUUUAAAUCCCGUCGUAGCCACCA
DNA 1: CAATCTGAATTCCGGTCTCCC
DNA 2: TGGTGGCTACGACGGGATT
B2: CCGCAUU (DNA:RNA)
RNA: B1 RNA with G25C, U27G, U29A, C30U
DNA 1: CAATCTGAATTCCGGTCTCCC
DNA 2: TGGTGGCTACGACGGGATT
B3: CCGGAUG (DNA:RNA)
RNA: B1 RNA with G25C, U27G, C28G, U29A, C30U, U31G
DNA 1: CAATCTGAATTCCGGTCTCCC
DNA 2: TGGTGGCTACGACGGGATT
B4: UCCUAUU (DNA:RNA)
RNA: B1 RNA with G25U, U27C, C28U, U29A, C30U
DNA 1: CAATCTGAATTCCGGTCTCCC
DNA 2: TGGTGGCTACGACGGGATT
B5: UCAAGCC (DNA:RNA)
RNA: B1 RNA with G25U, U27A, C28A, U29G, U31C
DNA 1: CAATCTGAATTCCGGTCTCCC
DNA 2: TGGTGGCTACGACGGGATT
B6: GUGUUAG (DNA:RNA)
RNA: B1 RNA with C26U, U27G, C28U, C30A, U31G
DNA 1: CAATCTGAATTCCGGTCTCCC
DNA 2: TGGTGGCTACGACGGGATT
B7: GCUCAAG (DNA:RNA)
RNA: B1 RNA with U29A, C30A, U31G
DNA 1: CAATCTGAATTCCGGTCTCCC
DNA 2: TGGTGGCTACGACGGGATT
B8: AACGCUG (DNA:RNA)
RNA: GGGAGACCGGAAUUCAGAUUGUCCAACGCUGUUAAAUCCCGUCGUAGCCACCA
DNA 1: CAATCTGAATTCCGGTCTCCC
DNA 2: TGGTGGCTACGACGGGATT
B9: AUAGCUC (DNA:RNA)
RNA: B8 RNA with A26U, C27A, G31C
DNA 1: CAATCTGAATTCCGGTCTCCC
DNA 2: TGGTGGCTACGACGGGATT
B10: CUAGUCU (DNA:RNA)
RNA: B1 RNA with G25C, C26U, U27A, C28G
DNA 1: CAATCTGAATTCCGGTCTCCC
DNA 2: TGGTGGCTACGACGGGATT
B11: ACCUCUC (DNA:RNA)
RNA: B8 RNA with A26C, G28U, G31C
DNA 1: CAATCTGAATTCCGGTCTCCC
DNA 2: TGGTGGCTACGACGGGATT
B12: ACUGCAC (DNA:RNA)
RNA: B8 RNA with A26C, C27U, U30A, G31C
DNA 1: CAATCTGAATTCCGGTCTCCC
DNA 2: TGGTGGCTACGACGGGATT
B13: GCGACGA (DNA:RNA)
RNA: B1 RNA with U27G, C28A, U29C, C30G, U31A
DNA 1: CAATCTGAATTCCGGTCTCCC
DNA 2: TGGTGGCTACGACGGGATT
B14: AAGCCGU (DNA:RNA)
RNA: B8 RNA with C27G, G28C, U30G, G31U
DNA 1: CAATCTGAATTCCGGTCTCCC
DNA 2: TGGTGGCTACGACGGGATT
B15: CGCUACU (DNA:RNA)
RNA: B1 RNA with G25C, C26G, U27C, C28U, U29A
DNA 1: CAATCTGAATTCCGGTCTCCC
DNA 2: TGGTGGCTACGACGGGATT
B16: AUAUCGA (DNA:RNA)
RNA: B8 RNA with A26U, C27A, G28U, U30G, G31A
DNA 1: CAATCTGAATTCCGGTCTCCC
DNA 2: TGGTGGCTACGACGGGATT
B17: GUGGGUA (DNA:RNA)
RNA: B8 RNA with A25G, A26U, C27G, C29G, G31A
DNA 1: CAATCTGAATTCCGGTCTCCC
DNA 2: TGGTGGCTACGACGGGATT
B18: AAUGUAC (DNA:RNA)
RNA: B8 RNA with C27U, C29U, U30A, G31C
DNA 1: CAATCTGAATTCCGGTCTCCC
DNA 2: TGGTGGCTACGACGGGATT
B19: UUACUAC (DNA:RNA)
RNA: B1 RNA with G25U, C26U, U27A, C30A, U31C
DNA 1: CAATCTGAATTCCGGTCTCCC
DNA 2: TGGTGGCTACGACGGGATT
B20: UCGAGCG (DNA:RNA)
RNA: B1 RNA with G25U, U27G, C28A, U29G, U31G
DNA 1: CAATCTGAATTCCGGTCTCCC
DNA 2: TGGTGGCTACGACGGGATT
B21: AAAGGUA (DNA:RNA)
RNA: B8 RNA with C27A, C29G, G31A
DNA 1: CAATCTGAATTCCGGTCTCCC
DNA 2: TGGTGGCTACGACGGGATT
B22: CGCUAAG (DNA:RNA)
RNA: B8 RNA with A25C, A26G, G28U, C29A, U30A
DNA 1: CAATCTGAATTCCGGTCTCCC
DNA 2: TGGTGGCTACGACGGGATT
B23: CAUGAAC (DNA:RNA)
RNA: B8 RNA with A25C, C27U, C29A, U30A, G31C
DNA 1: CAATCTGAATTCCGGTCTCCC
DNA 2: TGGTGGCTACGACGGGATT
B24: AAGCUGG (DNA:RNA)
RNA: B8 RNA with C27G, G28C, C29U, U30G
DNA 1: CAATCTGAATTCCGGTCTCCC
DNA 2: TGGTGGCTACGACGGGATT
B25: ACGCUCU (DNA:RNA)
RNA: B1 RNA with G25A, U27G
DNA 1: CAATCTGAATTCCGGTCTCCC
DNA 2: TGGTGGCTACGACGGGATT
B26: UUACCCU (DNA:RNA)
RNA: B1 RNA with G25U, C26U, U27A, U29C
DNA 1: CAATCTGAATTCCGGTCTCCC
DNA 2: TGGTGGCTACGACGGGATT
B27: GCCAAGG (DNA:RNA)
RNA: B8 RNA with A25G, A26C, G28A, C29A, U30G
DNA 1: CAATCTGAATTCCGGTCTCCC
DNA 2: TGGTGGCTACGACGGGATT
B28: CGCGGGU (DNA:RNA)
RNA: B8 RNA with A25C, A26G, C29G, U30G, G31U
DNA 1: CAATCTGAATTCCGGTCTCCC
DNA 2: TGGTGGCTACGACGGGATT
B29: GGCAACU (DNA:RNA)
RNA: B1 RNA with C26G, U27C, C28A, U29A
DNA 1: CAATCTGAATTCCGGTCTCCC
DNA 2: TGGTGGCTACGACGGGATT
B30: GCUCUUC (DNA:RNA)
RNA: B1 RNA with C30U, U31C
DNA 1: CAATCTGAATTCCGGTCTCCC
DNA 2: TGGTGGCTACGACGGGATT
B31: AUUUUAG (DNA:RNA)
RNA: B8 RNA with A26U, C27U, G28U, C29U, U30A
DNA 1: CAATCTGAATTCCGGTCTCCC
DNA 2: TGGTGGCTACGACGGGATT

Where a chain is given by its changes, count along the chain named. Some of the results follow.

The target in the test is T1, RBFOX1 RRM RbFoxmut (Fox-RRM*). The test can be described thus: EMSA; HiTS-Eq, 1 nM pool, 10 min; buffer printed only for the single-RNA assays: 10 mM Tris pH 7.5, 150 mM NaCl, 3.4 mM EDTA, 0.001% NP-40, 30 C. As to conditions: tags: His6 N-terminal (pET28a); label: 5' 32P. The gist of the method: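 Purified RbFox RRM, wild type or mutant, was incubated for 10 min in 50 µL with 1 nM of a 5′-radiolabelled RNA pool carrying 7 randomized nucleotides, whose flanks were annealed to DNA oligonucleotides, over a series of increasing protein concentrations. Unbound RNA was resolved on 8% native PAGE, cut out, reverse-transcribed, barcoded by PCR and sequenced on an Illumina HiSeq 2500. Relative association constants were derived from changes in read counts for each RNA species versus the control reaction and normalised to the cognate motif.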
For the molecule B1, the binding signal is 0.0785 KA relative to UGCAUGU. As for B2, the figure is 0.106 KA relative to UGCAUGU. As for B3, the figure is 0.218 KA relative to UGCAUGU; as for B4, 0.101 KA relative to UGCAUGU. As for B5, the binding signal is 0.0868 KA relative to UGCAUGU. On to B6, for which the binding signal was 0.14 KA relative to UGCAUGU.

Take B7: the binding signal is 0.105 KA relative to UGCAUGU. For B8, the binding signal is 0.0713 KA relative to UGCAUGU. As for B9, the figure is 0.0915 KA relative to UGCAUGU; as for B10, 0.059 KA relative to UGCAUGU; as for B11, 0.0427 KA relative to UGCAUGU. Regarding B12, the binding signal was 0.106 KA relative to UGCAUGU. In the case of B13, the binding signal was 0.0697 KA relative to UGCAUGU. With B14 the figure was 0.126 KA relative to UGCAUGU.

As to B15, the binding signal is 0.0995 KA relative to UGCAUGU. Consider B16, for which the binding signal is 0.0981 KA relative to UGCAUGU. Take B17: the binding signal was 0.212 KA relative to UGCAUGU. In the case of B18, the binding signal was 0.133 KA relative to UGCAUGU. With B19 the figure was 0.0898 KA relative to UGCAUGU; with B20, 0.155 KA relative to UGCAUGU. As to B21, the binding signal was 0.104 KA relative to UGCAUGU. Consider B22, for which the binding signal is 0.114 KA relative to UGCAUGU. B23: the binding signal is 0.126 KA relative to UGCAUGU. As for B24, the figure is 0.0882 KA relative to UGCAUGU; as for B25, 0.0451 KA relative to UGCAUGU; as for B26, 0.084 KA relative to UGCAUGU.

With B27, the binding signal is 0.0599 KA relative to UGCAUGU. As for B28, the figure is 0.0947 KA relative to UGCAUGU; as for B29, 0.057 KA relative to UGCAUGU; as for B30, 0.0502 KA relative to UGCAUGU. With B31 the figure was 0.152 KA relative to UGCAUGU.
